Experimental data published in PMC4336329 (PLoS ONE, 2015).
In all, about 310,000 compounds went through this assay and about 2,200 (0.71%) showed an effect of 50% or more. The effect is printed as a negative number. This is one part of the list.

target: human ether-à-go-go-related gene (hERG) potassium channel (human, UniProt Q12809); experiment: primary screen, population patch clamp on CHO cells stably expressing hERG
Sequence (Q12809 whole entry, looked up): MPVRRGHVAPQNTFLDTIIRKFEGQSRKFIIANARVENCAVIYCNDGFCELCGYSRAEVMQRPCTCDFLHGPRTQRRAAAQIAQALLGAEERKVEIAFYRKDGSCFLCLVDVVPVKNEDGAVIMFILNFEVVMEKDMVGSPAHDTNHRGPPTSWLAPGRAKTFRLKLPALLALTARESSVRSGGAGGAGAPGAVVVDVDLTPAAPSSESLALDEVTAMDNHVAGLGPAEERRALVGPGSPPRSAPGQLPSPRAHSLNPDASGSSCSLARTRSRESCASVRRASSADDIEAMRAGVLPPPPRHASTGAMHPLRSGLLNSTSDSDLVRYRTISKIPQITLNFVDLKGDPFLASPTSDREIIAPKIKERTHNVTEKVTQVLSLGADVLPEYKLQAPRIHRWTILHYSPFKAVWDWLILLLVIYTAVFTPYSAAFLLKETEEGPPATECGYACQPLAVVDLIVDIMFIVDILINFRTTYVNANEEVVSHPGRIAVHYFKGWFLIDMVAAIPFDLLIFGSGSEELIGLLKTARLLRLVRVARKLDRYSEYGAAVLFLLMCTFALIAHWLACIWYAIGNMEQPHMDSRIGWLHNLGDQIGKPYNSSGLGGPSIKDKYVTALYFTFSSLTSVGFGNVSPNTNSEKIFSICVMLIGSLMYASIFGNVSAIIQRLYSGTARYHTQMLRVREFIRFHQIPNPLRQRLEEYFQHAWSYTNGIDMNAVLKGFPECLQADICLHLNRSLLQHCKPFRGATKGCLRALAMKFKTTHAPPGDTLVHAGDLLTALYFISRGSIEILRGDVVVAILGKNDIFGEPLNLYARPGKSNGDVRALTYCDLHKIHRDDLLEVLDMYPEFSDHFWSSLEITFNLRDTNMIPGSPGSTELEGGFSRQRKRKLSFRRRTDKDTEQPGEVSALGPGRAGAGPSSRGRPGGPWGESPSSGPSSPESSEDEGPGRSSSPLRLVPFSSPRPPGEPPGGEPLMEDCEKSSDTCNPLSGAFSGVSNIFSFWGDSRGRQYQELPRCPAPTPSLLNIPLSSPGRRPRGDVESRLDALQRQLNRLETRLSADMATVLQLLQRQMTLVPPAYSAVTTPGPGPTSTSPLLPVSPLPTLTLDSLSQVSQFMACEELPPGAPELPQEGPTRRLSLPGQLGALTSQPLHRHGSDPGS

Compound | hERG current change (%, negative = inhibition) at 1uM
CCOC(=O)C1=NN(N=O)C2(CC(=O)N(c3cc(C)cc(C)c3)C2=O)C1 (stereo not shown) | 2.87%
Cc1sc(NC(=O)C2=COCCO2)nc1-c1ccc(F)cc1 | 19%
O=C(c1cc2cc([N+](=O)[O-])ccc2oc1=O)N1CCN(C2CCCCC2)CC1 | -60.8%
CCCCC1=CC2=C(c3ccco3)C(=O)C(C)(OC(=O)c3ccc(OC)cc3)C(=O)C2=CN1CCCN(CC)CC (stereo not shown) | 9.84%
COc1ccccc1C(=O)NC(=O)CSc1cccc[n+]1[O-] | 9.54%
O=C(/C=C/c1ccccc1[N+](=O)[O-])N1CCOCC1 | 15.3%
Cn1c(=O)c2c(ncn2CC(O)CNc2ccc(F)cc2)n(C)c1=O (stereo not shown) | 8.44%
Cc1ccccc1C(=O)N/N=C1/SCC(=O)N1Cc1ccc2c(c1)OCO2 | 10.4%
C[C@H](CCC(=O)NCC(=O)O)[C@H]1CC[C@H]2[C@@H]3[C@H](O)C[C@@H]4C[C@H](O)CC[C@]4(C)[C@H]3C[C@H](O)[C@]12C | 17.6%
Nc1nonc1-n1nnc(C(=O)N/N=C/c2cccnc2)c1CSc1ccccc1 | 7.83%
O=C(C1CCCO1)N1CCN(C(=S)Nc2ccc(F)c(Cl)c2)CC1 (stereo not shown) | 6%
O=C(CCS(=O)(=O)c1ccc(Cl)cc1)Nc1ccccc1Br | 7.47%
COc1ccc(CCN2C(=O)C3C4CC(C5C(C(=O)NN)=NOC45)C3C2=O)cc1OC (stereo not shown) | 12.7%
COc1ccc(C2=NO[C@@H]3C(=O)N(c4ccc(C)cc4C)C(=O)[C@H]23)cc1OC | 7.66%
CCOC(=O)c1c(N/N=C/c2cccnc2)n[nH]c1C | -1.88%
COC(=O)Cn1ncc(N(C)Cc2ccccc2)c(Cl)c1=O | 10.3%
Cc1cc(NC(=O)Cn2c(=O)n(CCCCC(=O)NC3CCN(Cc4ccccc4)CC3)c(=O)c3ccccc32)n[nH]1 | 25%
O=C(CCS(=O)(=O)c1ccc(F)cc1)Nc1nnc(-c2ccco2)o1 | 20.1%
CC(C)(C)C(=O)Nc1ccc(N2CCN(c3ccc(C(F)(F)F)cn3)CC2)nc1 | 0.0346%
CC(=O)Nc1cccc(-c2csc(NCc3ccccc3)n2)c1.O=C(O)C(=O)O | 3.07%
Cc1cccc(-n2ncc3c(NCc4ccc5c(c4)OCO5)ncnc32)c1 | 13.1%
CCc1ccccc1NC(=S)NC1CC2CCC(C1)N2Cc1ccc(F)cc1 (stereo not shown) | -14.2%
COC(=O)c1ccccc1NC(=O)CSCC(=O)Nc1ccc(F)cc1 | -10.7%
c1cc(-c2cn(C[C@H]3CC[C@@H]([C@@H]4CC[C@H](Cn5cc(-c6ccsc6)nn5)O4)O3)nn2)cs1 | -44%
CN(C)CC/C=C1\c2ccccc2Sc2ccc(Cl)cc21.Cl | 3.37%
O=C(O)CNS(=O)(=O)c1cccc2nsnc12 | -2.71%
c1ccc(-n2ncc3c(NC4CCCCCC4)ncnc32)cc1 | 7.77%
COCCCn1c(SCCc2ccccc2)nc2cc(OC)c(OC)cc2c1=N | -2.93%

Compound | hERG current change (%, negative = inhibition) at 1uM
Cc1cccc(NC(=O)COC(=O)c2cc(C)oc2C)c1 | -33.9%
NC(=O)C[n+]1ccc(/C=N/O)cc1.[Cl-] | 2.85%
Cc1cccc(NC(=O)/C(C#N)=C\c2cn(CC(=O)O)c3ccccc23)c1 | 12.4%
O=C(Nc1ccn(Cc2ccccc2F)n1)c1ccc(COc2cc(Cl)ccc2Cl)o1 | 11.8%
CCC(=O)OCCNc1cc(Sc2nc3ccccc3[nH]2)c2nonc2c1[N+](=O)[O-] | 11.4%
COc1ccc(CCn2cnc(=O)c(C#N)c2C)cc1OC | 13.5%
Fc1ccc(F)c(NC(=S)NCCc2ccccc2)c1 | 9.13%
O=S(=O)(N1CCOCC1)n1cnc2ccccc21 | 5.02%
C=CCNc1ncnc2c1[nH]c1ccc(C)cc12 | 12.6%
COc1ccc(C=C(C(C)=O)C(C)=O)cc1OC | 7.71%
CNC(=O)CSc1nnc(COc2ccc([N+](=O)[O-])cc2)n1C | 10.2%
CCc1[nH]nc2c1C(C(C)C)C(C#N)=C(N)O2 (stereo not shown) | 15.3%
O=C(Nc1nc2c(F)cc(F)cc2s1)c1ccco1 | 10.5%
O=C(c1cc(-c2ccc(Cl)cc2)nc2ccccc12)N1CCOCC1 | -4.94%
N#Cc1ccsc1NC(=O)COC(=O)CCCSc1nc2ccccc2s1 | 4.32%
Cc1ccc(NC(=S)N/N=C/c2ccc(OCCC(C)C)cc2)c(C)c1 | 2.34%
CCC(CC)c1nnc(NC(=O)c2ccco2)s1 | 11.8%
O=C(Cn1nnc(-c2ccccc2F)n1)Nc1ccc2c(c1)OCCO2 | 14.7%
CC1CN(C(=O)CSc2nnc(-c3cccs3)n2N)CC(C)O1 (stereo not shown) | 5.36%
Oc1ccc(-c2csc(NCc3ccco3)n2)cc1 | 16.1%
Cc1ccc(-n2nc(C)c(/C=N/n3c(C)n[nH]c3=S)c2Cl)cc1 | 6.67%
COc1ccc(CCN2C(=NC(=O)CC(C)C)SC3CS(=O)(=O)CC32)cc1 (stereo not shown) | 6.72%
CCCC(=O)Nc1ccc(C(=O)NNC(=O)c2cccs2)cc1 | 17.9%
O=C(Nc1nc(-c2cc(Cl)sc2Cl)cs1)c1cccs1 | 20.8%
COc1ccc(C(=O)Oc2c(CN3CCOCC3)cc(Cl)c3cccnc23)cc1 | 3.9%
COc1cccc(/C=c2\sc3nc(-c4cccs4)nn3c2=O)c1OC | 12.4%
Cc1cc(NC(=O)CCC(=O)N(Cc2cccnc2)C(C(=O)NC(C)(C)C)c2ccccc2Cl)no1 (stereo not shown) | 14.7%
